# According to the supplement of paper PMC11417369:
# The other results are listed elsewhere or left out.
# Test system: PfHDP1 homeodomain (GST-tagged)
# Test: gcPBM binding intensity (ln(normalized median fluorescence intensity)); higher = stronger DNA binding
# In short: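 DNA-binding domains from P. falciparum, fused to GST and produced in E. coli, were put on an Agilent 4 × 180k double-stranded probe array for 1 h in 1× PBS holding 1% milk, 0.2 mg/ml BSA, 0.5% salmon testes DNA and 0.03% Triton X-100. Probes were primer-extended, 36 bp long and drawn from intergenic genomic regions, with negative controls included. After Alexa488 anti-GST antibody detection and a 488 nm scan, binding intensity was set as the highest Masliner-normalised natural-log median intensity across replicate spots of either probe orientation.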
row,Sequence,gcPBM binding intensity (ln)
1,TTTAATAAAATTCTAGTGCAAAAAGGAAAAAACAAA [GTGCAC_site9642],10
2,AAAAAAAAAAAAAATACACACATATATAAATAAATA [CACACA_site6459],6.6
3,GAAGTTTTTTAAAGATGTACTTTTTAAAAATAATGT [XGTACX_site1975],6.57
4,TTCTTAATTTAAAATTGTACTTAAGTAATACTTATG [XGTACX_site3928],6.48
5,TTATTTACTTATTGCACACATATAAAATATATTTAT [CACACA_site3101],10.7
6,GGAATAGTGATATATACACACAAATACATATTTATA [CACACA_site6183],6.79
7,AATTAATAAGAAAGGTGTACAGAAAAAAAAAAATAT [XGTACX_site2106],7.04
8,TATTTTTATCAATTCACACATAAATATATTTATATG [CACACA_site5547],6.57
9,CACAGTGATATAAAAACACACATGAATTAAAATTTC [CACACA_site4999],6.12
10,TCCCTTAATTTTGTGTGTACATATAATATATTTTTA [XGTACX_site2789],6.76
11,GTTAATTATTAAATTTGTACTCATATATATTATATA [XGTACX_site6862],6.6
12,CATACATACAGACACACACACATATTTATATTTATA [CACACA_site6172],7.11
13,ATTCATAAATATATTTGTACATATTATATATAAATA [XGTACX_site1907],6.57
14,ATAATAAAACTCAAAGTGCATTAGAATAATTGTAAA,8.11
15,AAGAACTCATTAATAATGTAATATTTTATAATTTAG [CACACA_negctrl_site321],5.97
16,TTTTTATAATAAAAAAATATAACTATATTAAGCCAC [CACACA_negctrl_site555],6.59
17,GATATTATTGCATATTTACACACGTACTAATTTAAA [CACACA_site8231],7.82
18,TACAATTGTAAAGGCGCACACATATATATATATATA [CACACA_site1392],9.36
19,AGCACCCACCAACACACACACACACCCACCCACCCA [CACACA_site8011],6.61
20,TAATATATAACGTGCACACACACATTTACGTATGAA [CACACA_site1832],9.89
21,ACAATAAATATGTGGTTGCACTTATAATATATTTAT,7.26
22,TATACATATTTCTATTGTACATAAACTAAATCTTCA [XGTACX_site28],5.94

row,Sequence,gcPBM binding intensity (ln)
1,TATATATTTATTAAATGTACATAACAAAAATGGTAT [XGTACX_site3577],7.05
2,ATTTATATATAATTTTGTACGAAAAAAATAAGGTAT [XGTACX_site3578],7.08
3,TGCATACATAAATGTATATATTAATATATATCATAT [GTGCAC_negctrl_site252],6.32
4,AAATAAAGTAAAATATGTACATAAATTAAAACACAT [XGTACX_site8539],7.19
5,TTAAATGAAAAAATATGTACGTATAATAAGAAATAT [XGTACX_site6619],6.97
6,TTTTTTCTTAGTTATACATGCAAAATAAATAAATAA [TGCATGCA_site410],6.53
7,TATTTTTTCTTAAACACACACATATATATATAGAAT [CACACA_site2836],6.85
8,GTATGAGTCGTAGAGTGTACTCTGGAGAAAACTACA [XGTACX_site4942],6.25
9,AATACATAATAACATGTACACACATTCTTCTATAAA [CACACA_site9344],6.57
10,TATACGAAATTGTGCACACATATATTTATGTATGTA [CACACA_site1509],11
11,AAAAAAAACGAACACACACACATACAAAATCTATAT [CACACA_site6795],6.78
12,TTAAAAGAATATAATGCACACATTATTTTATTTTAT [CACACA_site3772],10.4
13,TACCCACGTATATATATACACACTAATATACACCCA [CACACA_site9381],7.22
14,ATATAAATACGGTGTGCACACACATAATATATATAT [CACACA_site2271],11.1
15,TACACCCTATTTTTATGTACTTATTTGATTTACACA [XGTACX_site8172],6.91
16,CAAGAAAATGGACACACACACATATATATATATATA [CACACA_site6010],9.4
17,CAAATTTAAAAAAAATCACACACAGAAAAAAAAAAA [CACACA_site8728],6.44
18,TTTGTTTTAAATATTATACACACGTAAAAGTAGAAT [CACACA_site214],6.73
19,GGAAACCTTTTTTTTACACACAATATATTAATACTT [CACACA_site1403],6.7
20,GTGTAATTATCAGCATAAATATGGTACATACATAAA [CACACA_negctrl_site323],6.47
21,TGTATACGCATATGTACACACATATATATGTATATG [CACACA_site3087],6.91
22,AAAAGATTTATACATACACACATATTATAGTCACAT [CACACA_site7701],6.71
